In the assay the test system is NCI-H322M lung. As to the kind of experiment: growth of human tumour cells (NCI), 48 h.

Structures are written as SMILES. Values joined by “and” are separate entries in the source; they are usually repeats but may differ in a detail not shown here. Identical values can stand only once.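 Test compounds were applied to cells in 96-well plates for 48 hours at 5 doses. Here, GI50 denotes the concentration required for 50% inhibition of growth. TGI: concentration producing complete growth inhibition.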 Numbered stars: 1 amine (or outer) side, 2 acyl side, 3 side chain; on linkers, the order of the positions; unused ones are H or OH. Square brackets hold non-standard residues; d marks the D form. Peptide text beside a SMILES is read from it. * marks the point of attachment. X27 = CC(=O)N(C)SCC(N[*:1])C(=O)[*:2]; Fmoc = O=C(OCC1c2ccccc2-c2ccccc21)*; Cbz = O=C(OCc1ccccc1)*; Boc = CC(C)(C)OC(=O)*; Bn = c1ccc(C*)cc1 Bounds are passed on as bounds.

For `CSc1ccc(/C=C2\N=C(c3ccccc3)N(c3nc4cc(C)c(C)cc4s3)C2=O)cc1`, the TGI is > 100 µM.
The same measure, in the same setting: the result for `O=C(CCCl)NNC1=NCCCN1` reads > 100 µM.
Same read-out and setting: under `CSc1nc2c(ncn2C2OCC(O)C(O)C2O)c(=O)n1C` (configuration not stated) stands > 100 µM; under `O=C(O)c1ccc(C(=O)O)c(C(=O)Nc2ccc3c(c2)C(=O)c2ccccc2-3)c1`, > 100 µM; under `Cc1ccc(S(=O)c2sccc2C=O)cc1` (configuration not stated), > 100 µM.
Take `NNC(=O)N/N=C1\C(=O)N(c2ccc(Cl)c(Cl)c2)C(=O)C(=O)C1c1nc2ccccc2s1` (configuration not stated): the TGI was > 100 µM.
Still for that read-out and setting: the result for `O=C(CSc1nc2ccc(I)cc2c(=O)n1Cc1ccccc1)NNC(=O)c1ccccc1` reads 27.2 µM; that for `CC(C)(C)CC(N)=O`, > 100 µM.
For `CCOC1Oc2ccccc2-c2nc(SC)ncc21` (configuration not stated), the TGI is > 100 µM.
`c1ccc2c(c1)N=C(c1cccc3ccccc13)CC(c1ccc3c(c1)OCO3)S2` (configuration not stated): the TGI was > 100 µM.
Still for that read-out and setting: the result for `Cc1cc(C)nc(NS(=O)(=O)c2ccc(Nc3c4ccc(Cl)cc4nc4c(C(=O)NCCN(C)C)cccc34)cc2)n1` reads > 100 µM; that for `CN(c1cn(C2CC[C@@H](CO)O2)c(=O)[nH]c1=O)C1CCCCC1` (some centres not stated), > 100 µM; that for `CCOC(=O)c1[nH]cc(C)c1-c1ccc2c(-c3ccccc3)nc3ccccc3n12`, 25.3 µM.
Same read-out and setting: under `COc1cccc(N(CN2C(=O)CCC2C(=O)O)C(C)=O)c1` (configuration not stated) stands > 100 µM.
With `NCC1OC(OC2C(CO)OC(OC3C(O)C(N)CC(N)C3OC3OC(CO)C(O)CC3N)C2O)C(N)C(O)C1OC1OC(CO)C(O)C(O)C1O` (configuration not stated), the GI50 was > 50 µg/mL and the TGI was > 50 µg/mL.
In the case of `OCCN1CCN2C=C(C3CCCC4N(CCO)CCN34)CCC21` (configuration not stated), the TGI is > 100 µM.
`CCOC(=O)C(C(=S)SC)c1nn2c(=O)cc(C)nc2s1` (configuration not stated) showed a TGI of 39.1 µM.
`COc1cc(C2C(Cl)C(=O)N2NC(=O)c2ccc(N)cc2)cc(Br)c1O` (configuration not stated) had a TGI of 28.8 µM.
The same measure, in the same setting: under `O=C(COC(=O)c1cccc2c(=O)c3ccccc3[nH]c12)Nc1ccc(C(=O)O)cc1` stands > 100 µM; under `C=C(CN1CC2C[C@](C(=O)OC)(c3cc4ccccc4[nH]3)C1C(OC)C2OC)S(=O)(=O)c1ccccc1` (some centres not stated), 14.4 µM; under `CC(=O)NC1C(OCc2ccccc2)OC(COC(=O)CCCCCCCCCCNc2ccc([N+](=O)[O-])c3[nH]c4ccccc4c(=O)c23)C(O)C1OC(C)C(=O)NC(C)C(=O)NC(CCC(N)=O)C(=O)OCc1ccccc1` (configuration not stated), > 100 µM.
Same read-out and setting: the result for `CCN(CC)CCNc1ccc2nnn3c4ccc(O)cc4c(=O)c1c23` reads 17.1 µM.
Regarding `Clc1ccc(-c2cc(-c3ccccc3)nc(NCCNc3ccnc4cc(Cl)ccc34)n2)cc1`, the GI50 is 1.65 µM and the TGI was 3.08 µM.
In the case of `CCN(CC)Cc1c(/C=C\c2cc(OC)c(OC)c(OC)c2)ccc(OC)c1O`, the TGI was > 100 µM.
Same read-out and setting: under `COc1ccc(C2C3CCc4ccccc4C3=NN2S(=O)(=O)c2ccc(/C=C/C(=O)O)cc2)cc1` (configuration not stated) stands > 100 µM; under `COc1ccc(C2C(C)C(=O)C(C)C(c3ccc(OC)cc3)N2N=O)cc1` (configuration not stated), > 1000 µM.
For `CC(=O)OC1CC2C3CCC4C[C@@H](NC(=O)C=C(C)C)CC[C@]4(C)C3CC[C@]2(C)[C@H]1C(C)N(C)C` (some centres not stated), the GI50 is 2.39 µM and the TGI stood at 5.89 µM.
Take `COC(=O)C1(C(=O)OC)N=C(C)OC1/C=C/c1ccccc1` (configuration not stated): the TGI is > 100 µM.
On the same count and under the same terms, under `OCc1c[te]c(-c2ccccc2)c1` stands > 100 µM; under `COc1ccc2nc3ccc(OC)cc3c(SCc3ccccc3)c2c1`, > 50.4 µM; under `CCCCCC/C=C1\CCC(CN2CCOCC2)C1=O` (configuration not stated), 49.7 µM.
For the compound `CC#CC1C2CCCC1(CSc1ccccc1)NC(=O)O2` (configuration not stated), the TGI is > 100 µM.
The same measure, in the same setting: under `O=c1c2cc(Cl)cc(Cl)c2oc2nc3n(c(=O)c12)CCCS3` stands > 100 µM.
On the same count and under the same terms, the result for `Cc1nnc(N)nc1/C=C/c1c(O)ccc2ccccc12` reads 77.1 µM.
For `O=C(OCc1ccccc1)N(CCCCN(CCCNCc1ccccc1)C(=O)OCc1ccccc1)CCCNCc1ccccc1`, the TGI was 2.78 µM.
Consider `O=C1CSC(c2c[nH]c3ccccc23)N1c1ccccc1[N+](=O)[O-]` (configuration not stated), for which the TGI was > 100 µM.
Take `COC1=CC(c2ccc[nH]2)=N/C1=C\c1[nH]c(C)c(C(=O)CCCCC(=O)Oc2ccc3c(c2)CCC2C3CC[C@]3(C)[C@@H](O)CC[C@@H]23)c1C` (some centres not stated): the GI50 is > 100 µM and the TGI was > 100 µM.
As for `CC1(c2ccccc2)CC(c2cccc([N+](=O)[O-])c2)=NO1` (configuration not stated), the TGI was > 100 µM.
Still for that read-out and setting: under `CC(C)Cc1cc2c(cc1O)CCC1C2CC[C@@]2(C)C1CC[C@@H]2O` (some centres not stated) stands 25.4 µM; under `CC(=O)OC1COC(N2C(=O)C(=O)c3cc(Br)ccc32)C(OC(C)=O)C1OC(C)=O` (configuration not stated), > 100 µM.
Consider `O=C(c1ccco1)c1c(C(F)(F)F)n([O-])c2ccc(Cl)cc2[n+]1=O`, for which the GI50 is 3.81 µM and the TGI was determined as 9.85 µM.
Regarding `Fc1ccc(-c2sc(-c3cccs3)cc2Cc2cccs2)cc1`, the TGI was > 100 µM.
The same measure, in the same setting: under `COc1cccc(NC(=O)C(=O)C(C(=O)c2ccccc2F)C2OC(=O)c3ccccc32)c1` (configuration not stated) stands > 100 µM.
The same measure, in the same setting: under `O=C1C=CC(=O)c2c1ccc1c3ccccc3n(-c3ccccc3[N+](=O)[O-])c21` stands 32.4 µM.
As for `COc1cc(/C=C/C(=O)N2CCN(C(=O)c3cc(OC)c(OC)c(OC)c3)CC2)ccc1OCCCOc1cc2c(cc1OC)C(=O)N1CCC[C@H]1C=N2`, the GI50 is 1.03 µM and the TGI was determined as 9.25 µM.
Take `COC(=O)C1=C(C(=O)OC)C2(C)Nc3ccccc3C2=C(c2ccccc2)C1` (configuration not stated): the TGI came out at 45.6 µM.
With `c1ccc2cc(C[n+]3ccn(CCCCCCCCCCn4cc[n+](Cc5ccc6ccccc6c5)c4)c3)ccc2c1`, the GI50 is 3.55 µM and the TGI turned out to be 18.4 µM.
As for `CC(C)NC(=O)CCN(C(=O)O)S(=O)(=O)c1ccc(NC(=O)c2ccccc2)cc1`, the TGI was > 100 µM.
With `COc1cc(/C=C2\C[C@H]3[C@@H]4CC=C5C[C@@H](O)CC[C@]5(C)[C@H]4CC[C@]3(C)[C@H]2O)ccc1OCCCn1ccnc1`, the GI50 is 0.677 µM and the TGI is 6.61 µM.
In the case of `CC(=O)[CH-]C(=O)c1ccccc1.CC(=O)[CH-]C(=O)c1ccccc1.C[C@]12CCC(=O)C=C1CC[C@@H]1C2CC[C@@]2(C)C1CC[C@@H]2[O-].C[C@]12CCC(=O)C=C1CC[C@@H]1C2CC[C@@]2(C)C1CC[C@@H]2[O-].Cl.[Ti+4]` (some centres not stated), the GI50 is 29.4 µM and the TGI was > 100 µM.
As for `CC(=O)N(C)SCC(NC(=O)C(Cc1ccccc1)NC(=O)OCc1ccccc1)C(=O)NC(Cc1ccccc1)C(=O)NC(Cc1c[nH]c2ccccc12)C(=O)NC(CCCCNC(=O)OCc1ccccc1)C(=O)NC(C(=O)NC(CSN(C)C(C)=O)C(=O)NC(C(N)=O)C(C)OCc1ccccc1)C(C)OCc1ccccc1` (configuration not stated) (Cbz-F[X27]FWK(Cbz)T(Bn)[X27]T(Bn)-NH2; configuration not given here), the TGI was > 100 µM.
Same read-out and setting: under `O=C(Nc1cccc2c1[nH]c1c(-c3ccccc3)nccc12)c1ccccc1[N+](=O)[O-]` stands > 100 µM; under `COC(=O)/C=C/C1(O)C=CC(=O)C=C1`, 29.3 µM.
For `CN1CCN(Cc2ccc(NC(=O)c3cccc(C#Cc4cnc(N)c5ncccc45)c3F)cc2C(F)(F)F)CC1`, the GI50 is 1.94 µM and the TGI is 8.77 µM.
The matching figures for `OCc1ccc(N2CCc3ccccc3C2)cc1Cl`: 0.579 µM and 3.98 µM.
For the compound `COc1ccccc1NC(=O)c1nc2ccc([N+](=O)[O-])cc2nc1C`, the TGI was > 100 µM.
Still for that read-out and setting: the result for `Cc1ccc2nc(C=Nc3ccc(Cl)cc3)cc(C)c2c1` reads > 100 µM; that for `O=Cc1ccc(CCl)cc1`, 54.5 µM; that for `O=C1CCSC2=C1SCc1sccc12`, > 100 µM.
On the same count and under the same terms, under `COc1ccc2cc(-c3nc(N)nc(N4N=C(C)CC4(C)C)n3)c(=N)oc2c1` stands 56.7 µM.
Same read-out and setting: under `CC1=CC(=O)CC(C)(C)C1/C=C/C(C)=C/C=C/C(C)=C/C=C/C=C(C)/C=C/C=C(C)/C=C/C1=C(C)CC(O)CC1(C)C` (configuration not stated) stands > 100 µM.
Take `CC(=O)C1=C(C)N(c2ccc(C)cc2)C2(O)C3=C(C(=O)c4ccccc4C3=O)C(O)=CC12Cl` (configuration not stated): the TGI was > 100 µM.
Same read-out and setting: under `NCOC(=O)Cc1ccc(Br)cc1` stands > 100 µM; under `O=C1CC(=O)NC(=NNS(=O)(=O)c2ccccc2)N1`, > 100 µM.
The same measure, in the same setting: under `c1ccc2c(c1)CCc1[nH]c3c(c1-2)-c1ccccc1CC3` stands > 100 µM.
On to `Cn1c(NCC(O)CN2CCCC2)cc(=O)n(C)c1=O` (configuration not stated), for which the GI50 is > 100 µM and the TGI is > 100 µM.
`CC(=O)c1cc(C(=O)c2ccc3c(c2)Sc2ccccc2N3)c2cc(C)ccn12`: the GI50 was 0.207 µM and the TGI is > 100 µM.
Consider `Nc1cc(=O)n(-c2ccccc2)c(=S)n1-c1ccccc1`, for which the TGI is > 100 µM.
Still for that read-out and setting: under `Ic1cc2c(cc1C1SCCCS1)OCO2` stands > 100 µM.
As for `Cn1c(/C=C/[N+](=O)[O-])cc2ccccc21`, the GI50 is 17.9 µM and the TGI is 43.5 µM.
As to `NC12CCC(CC1=O)C2` (configuration not stated), the TGI was > 100 µM.
As to `COc1cc([C@@H]2C[C@H]2c2cc(SC)n[nH]2)cc(OC)c1OC`, the GI50 was 29.8 µM and the TGI is > 100 µM.
The matching figures for `O=C(Nc1ccc(/C=C/c2ccc(NC(=O)c3cc(S(=O)(=O)O)c4cccnc4c3O)cc2S(=O)(=O)O)c(S(=O)(=O)O)c1)c1cc(S(=O)(=O)O)c2cccnc2c1O`: > 55.9 µM and > 76.6 µM.
Take `Cc1c(O)c2c(c(O)c1Br)C(=O)C=CC2=O`: the GI50 was 1.96 µM; the TGI was 2.98 µM and 3.67 µM.
Regarding `COc1cc2c(cc1OC)C(=O)/C(=C/c1cc(OC)c(OC)c(OC)c1)C2`, the TGI is > 100 µM.
With `C[C@@H](NC(=O)c1ccc(CNC(=O)/C=C/c2cccc(Oc3ccccc3)c2)cc1)c1ccccc1`, the TGI is > 100 µM.
Same read-out and setting: under `O=c1ssc(Cl)c1Cl` stands > 10 µM.
Still for that read-out and setting: the result for `O=C(NCCNCCCNC(=O)c1cc(-c2ccccc2)nc2ccccc12)c1cccc(OCc2ccccc2)c1OCc1ccccc1` reads 3.25 µM.
The same measure, in the same setting: the result for `CC(C)(C)OC(=O)NCCCCC(NC(=O)C(Cc1c[nH]c2ccccc12)NC(=O)OCC1c2ccccc2-c2ccccc21)C(=O)N1CCCC1C(=O)NCC(N)=O` (configuration not stated) (Fmoc-WK(Boc)PG-NH2; configuration not given here) reads > 100 µM; that for `COP(=O)(OC)C(O)CC(C)C` (configuration not stated), > 100 µM.
